Drawing on PubChem BioAssay AID463173 (ICCB-Longwood Screening Facility, Harvard Medical School, 2010), this text covers survival for 90 compounds.

The structures appear in SMILES notation. In all, about 52,000 compounds went through this assay and about 4,300 (8.3%) were called active. Cut-off read from the data, not from the text of the source: active = survival mostly below about 52% (no sharp cut-off); inactive = mostly above about 56%. The list shows a part of the results.

In the experiment the test system is DeltatarO mutant. The experiment is described as follows: S. aureus survival, RN4220 and DeltatarO strains – OD600, teichoic acid synthesis inhibitors, primary screen (AID 463173). To be noted: S. aureus RN4220 wild type/DeltatarO growth, OD600, 18 h, hits give low values, screened at 18.75 µg/mL (by protocol).
On to `Cc1cc2nn(-c3ccc(F)cc3)nc2cc1NC(=O)c1cccc([N+](=O)[O-])c1C`, for which the survival was inactive: 76%. The figure for `COc1cccc(OC(=O)CSc2nnc(-c3cccs3)o2)c1` is inactive: 106%; for `CC(=O)Nc1ccc(Nc2nc3c(S(=O)(=O)c4cc(C)ccc4C)nnn3c3ccsc23)cc1` it is inactive: 85%.

In the case of `COc1ccc(N2C(=O)CSC23C(=O)N(CC(=O)Nc2ccccc2F)c2ccccc23)cc1` (stereo not given), the survival is inactive: 113%.

`COC(=O)c1ccc(Nc2nc(-c3ccccc3Cl)nc3ccccc23)cc1`: the survival was active: 21%. As for `Clc1cccc(-c2nc3ccccn3c2Nc2ccc3c(c2)OCCO3)c1`, the figure is inactive: 83%; as for `Cc1cccc(C(=O)Nc2cc3nn(-c4ccc(C(C)C)cc4)nc3cc2C)c1`, inactive: 76%. As for `N#C/C(=C/c1ccccc1Cl)c1nc2ccccc2c(=O)[nH]1`, the survival is inactive: 53%.

Regarding `CCCCCCNC(=O)c1c[nH]c2ccc(S(=O)(=O)N(C)c3ccc(C(C)C)cc3)cc2c1=O`, the survival was inactive: 95%. In the case of `Cc1cc(C)c2nc(NCCNC(=O)C3CCCCC3)c(C#N)cc2c1`, the survival was inactive: 93%. The figure for `COc1ccc(N2CCN(C3(c4ccccc4)C(=O)c4ccccc4C3=O)CC2)cc1` is inactive: 105%; for `Cc1ccc(Cl)cc1N(C)C(=O)c1cc2c(Cl)nc3ccccc3c2s1` it is inactive: 54%; for `C=CCOc1c(Br)cc(CNCCCN2CCOCC2)cc1OC` it is inactive: 102%.

Regarding `O=C(C1CCC(Cn2c(=O)c3sccc3n(Cc3cccc(F)c3)c2=O)CC1)N1CCOCC1` (stereo not given), the survival is inactive: 66%. As to `Cc1nc2ccccn2c1C(=O)NC1CCCC1`, the survival is inactive: 82%.

For the compound `CCn1ccc2cc(S(=O)(=O)N3CCCN(C(=O)Nc4cccc(SC)c4)CC3)ccc21`, the survival was active: 47%. The figure for `CCCNC(=O)C1CCN(C(=O)N2CC(C)Oc3ccccc32)CC1` (stereo not given) is inactive: 65%.

With `COc1ccc(-n2ccnc2SCC(=O)Nc2cccc(OC)c2)cc1`, the survival is inactive: 98%.

On to `CCCCN(C)S(=O)(=O)c1ccc(NC2=NS(=O)(=O)c3ccccc32)cc1`, for which the survival was inactive: 79%. The figure for `Cc1ccc(NC(=O)Cn2cc(C(=O)c3ccco3)c3ccccc32)cc1C` is inactive: 60%; for `COc1ccccc1NC(=O)CSc1ccc(-c2ccccn2)nn1` it is inactive: 42%.

Consider `Cc1ccc(N(C)C(CNS(=O)(=O)c2ccccc2)c2ccccc2)cc1` (stereo not given), for which the survival was inactive: 101%.

`COc1cccc(CNC(=O)Cn2nc(-c3ccc(C)cc3)ccc2=O)c1`: the survival was inactive: 75%.

For the compound `Cc1ccc(CSCCNC(=O)C2CCN(S(=O)(=O)Cc3ccccc3)CC2)cc1`, the survival is inactive: 99%. As for `O=C(O)CSCC(=O)Nc1cccc(C(F)(F)F)c1`, the survival was inactive: 80%. Consider `CCCCCOc1ccccc1CN1C(=O)C(=O)c2cc(C)ccc21`, for which the survival is inactive: 151%.

Regarding `CCc1ccc(/C=C(/C#N)C(=O)OC)s1`, the survival was inactive: 73%. The figure for `CC1(C)CC(NCc2ccccc2)CCO1` (stereo not given) is inactive: 79%; for `Cc1ccc(/C=C/C(=O)N2CCC(c3nc4ccccc4o3)CC2)cc1` it is inactive: 87%. The figure for `COc1ccc(NC(=O)c2c(NCc3ccc(OC)c(OC)c3OC)sc3c2CCC3)c(OC)c1` is inactive: 83%; for `Cc1ccc(-n2nc3c(N4CCC(C(=O)NC5CCCCC5)CC4)nnc(C)c3c2C)cc1` it is inactive: 81%. Consider `Cc1ccc(N2C(=O)CSC2=S)c(C)c1`, for which the survival was inactive: 96%. `COc1ccc(-c2ccc(CNCCCSc3nnnn3C)o2)cc1Cl`: the survival is inactive: 79%. Take `COc1ccc(-n2ncc(C(=O)N3CCN(C(=O)c4ccco4)CC3)c2C2CCN(C(=O)OC(C)(C)C)CC2)cc1`: the survival is inactive: 86%. The figure for `CC(C)Cc1ccc(S(=O)(=O)NCc2nc3cccnc3n2Cc2ccccc2)cc1` is inactive: 109%; for `C=CCn1c(O)c(CN2CCOCC2)c(C)c(C#N)c1=O` it is inactive: 89%; for `CC1=C(C(N)=O)C(c2cccc(Br)c2)n2nc(SCc3ccccc3Cl)nc2N1` (stereo not given) it is inactive: 80%.

Regarding `CCc1nc2ccc(C(=O)N3CCN(c4cc(C)ccc4C)CC3)cc2nc1CC`, the survival is inactive: 66%. The figure for `Fc1ccc(CSc2nncn3c2cc2occc23)c(Cl)c1` is inactive: 58%; for `CCOc1ccc(CCNC(=O)c2cc3sccc3n2CC)cc1OCC` it is inactive: 90%; for `Cc1onc(-c2ccccc2)c1C(=O)NC(C)C` it is inactive: 78%. The figure for `Cc1ccc(N(C)S(=O)(=O)c2ccc(-c3coc(C)n3)cc2)cc1` is inactive: 75%; for `Cc1cccc(-c2noc(-c3ccc(NCc4ccccc4)c([N+](=O)[O-])c3)n2)c1` it is inactive: 80%; for `CC1=C(c2ccc(C)c(C)c2)S(=O)(=O)N=C1N1CCC(C(=O)NCc2ccccc2C)CC1` it is inactive: 76%. As for `COc1ccccc1N1CCN(CCCNC(=O)c2nnc(Cc3ccc(F)cc3Cl)o2)CC1`, the figure is inactive: 74%. Consider `Cc1ccc(NC(=O)CN2C(=O)COc3ccc(S(=O)(=O)N4CCOCC4)cc32)cc1N(C)C`, for which the survival is inactive: 99%. Consider `CCCCOc1ccccc1Cn1c(=O)sc2ccccc21`, for which the survival was active: -2%. The figure for `CC1CCN(c2ccc(C(=O)O)cc2)CC1` is inactive: 62%; for `CCOc1ccc(C(=O)Nc2cccc(NC(=O)c3ccc(Cl)cc3Cl)c2)cc1` it is inactive: 75%.

Consider `Cc1cccc(NC(=O)CN(C)S(=O)(=O)c2ccc3c(c2)CCC(=O)N3)c1C`, for which the survival was inactive: 93%. The figure for `Clc1cc2c(cc1C=Nc1ccc(N3CCOCC3)cc1)OCO2` is inactive: 83%; for `Cc1cccc(CCNC(=O)c2cc3c(=O)[nH]c4ccc(C)cc4c3s2)c1` it is inactive: 47%; for `COc1ccccc1CNc1nc2ccccc2c2nc(-c3cccc(C)c3)nn12` it is active: 24%. For the compound `COc1ccc(-c2nc3sc(CCNC(=O)C(=O)Nc4cc(F)ccc4F)c(C)n3n2)cc1`, the survival was inactive: 61%. The figure for `COc1cc([N+](=O)[O-])ccc1NC(=O)N1CCC2(CC1)Nc1ccccc1-n1cccc12` is active: 37%; for `CCn1cc(C(=O)NCCN(CC(C)C)CC(C)C)c(=O)c2cc(S(=O)(=O)N(C)C3CCCCC3)ccc21` it is inactive: 92%; for `CCOCCCn1c(SCC(=O)NCc2ccccc2)nc2c(sc3ccccc32)c1=O` it is active: -5%. As for `Cn1c(=O)n(C)c2cc(N3CCOCC3)c(NC(=O)c3ccc(C(C)(C)C)cc3)cc21`, the figure is inactive: 80%; as for `COc1ccc(NC(=O)c2nnn(CC(=O)Nc3cccc(C)c3C)c2N)c(OC)c1`, inactive: 60%.

As to `O=C(CSc1nnc(COc2ccc(F)cc2)o1)N1c2ccccc2CCc2ccccc21`, the survival was inactive: 65%. As for `CCOC(=O)c1cccc(NS(=O)(=O)c2ccc(-c3coc(C)n3)cc2)c1`, the figure is inactive: 80%. The figure for `COc1cc2c(cc1NC(=O)COc1ccc(Br)cc1)oc1ccccc12` is inactive: 72%; for `Cc1cc(C)c(NC(=O)C2CCN(C(=O)N3CCOc4ccccc43)CC2)c(C)c1` it is inactive: 71%; for `CCOc1ccc2nc(NCCCNS(=O)(=O)c3ccccc3)c(C#N)cc2c1` it is inactive: 79%. The figure for `COC(=O)c1ccc2c(=O)n(CCc3ccc(S(N)(=O)=O)cc3)c(SCC(=O)C(C)(C)C)nc2c1` is inactive: 72%. Regarding `COc1ccc(-c2cc(C(F)(F)F)n3ncc(-c4ccccc4)c3n2)cc1`, the survival is inactive: 49%. Take `CCc1cccc(N2C(=O)CS(=O)(=O)C23C(=O)N(Cc2ccccc2)c2ccc(C)cc23)c1` (stereo not given): the survival was inactive: 84%. As for `CSc1ccc(CNC(=O)c2sc3ncnc(N(C)C4CCCCC4)c3c2C)cc1`, the figure is inactive: 64%. Consider `Cc1cccc(C(=O)N2c3ncnn3C3(CCCCC3)[C@@H]3CCCC[C@@H]32)c1`, for which the survival is inactive: 82%. The figure for `Cc1cccc(Nc2cc(C)nc(-n3nc(C)cc3C)n2)c1` is inactive: 84%. The figure for `Cc1c(C(=O)Nc2ccc(F)cc2)oc2ccc(S(=O)(=O)N3CCCCCC3)cc12` is inactive: 99%.

As to `CCOC(=O)c1c(C)[nH]c(C)c1S(=O)(=O)N1CCCC(C(=O)Nc2cccc(CC)c2)C1` (stereo not given), the survival is inactive: 85%. As for `COc1cccc(NC(=O)/C(C#N)=C/c2c(C)n(Cc3ccccc3)c3ccccc23)c1`, the figure is inactive: 82%.

In the case of `CCOc1ccc(NC(=O)CCc2c(C)nc3nc(-c4cc(OC)cc(OC)c4)nn3c2C)cc1`, the survival was inactive: 78%.

For the compound `CC(=O)N1CCc2cc(Br)cc(S(=O)(=O)NCCc3cccc(C)c3)c21`, the survival was inactive: 75%. As for `CS(=O)(=O)N(CC(=O)Nc1cccnc1)c1ccc(Cl)cc1`, the figure is inactive: 91%. The figure for `Fc1ccc(C(NCCc2ccc(Cl)cc2)c2nnc(-c3ccccc3Cl)o2)cc1` (stereo not given) is active: 26%; for `COc1cc(C(=O)OCn2c(=O)oc3ccccc32)cc(OC)c1OC` it is inactive: 81%. As for `COCCCNc1nc(CC(C)C)nc2c1nnn2Cc1ccccc1`, the figure is inactive: 81%. Turning to `O=C(Nc1ccc(Cl)c(C(F)(F)F)c1)c1nc2ccccc2nc1N1CCCCC1`, the survival is inactive: 80%.

Take `COc1ccccc1Nc1nc(N)nc(N)c1S(=O)(=O)c1ccccc1`: the survival was inactive: 111%. As for `COc1ccc(-n2nnc(-c3nsc(NC(=O)c4cccc(C)c4)n3)c2C)cc1OC`, the figure is inactive: 88%; as for `COc1ccc(-c2[nH]c3c(c2-c2c(-n4cccc4)n(C)c(=O)[nH]c2=O)c(=O)[nH]c(=O)n3C)cc1F`, inactive: 63%. The figure for `Cc1ccc(S(=O)(=O)CC(=O)Nc2nc3c(C)cccc3s2)cc1` is inactive: 88%; for `Cc1ccc(-c2c3c(=O)n(C)c(=O)n(C)c3c3cnc4ccccc4n23)cc1` it is inactive: 128%; for `CSc1ccc(/C=C/c2nc3ccccc3n2S(=O)(=O)c2ccc(Br)cc2)cc1` it is inactive: 68%. As for `Cc1ccc(N2CCN(Cc3nnc(-c4ccccc4F)o3)CC2)c(C)c1`, the figure is active: 22%; as for `CN(C)N1C(=O)CC(n2cnc3ccccc32)C1=O` (stereo not given), inactive: 75%; as for `Cc1cccn2c(=O)c3cc(C#N)c(=O)n(-c4nnc(SCc5ccc(F)cc5)s4)c3nc12`, inactive: 109%. Consider `COc1ccccc1Nc1ncc2c(n1)CCN(Cc1cc(F)cc(F)c1)C2`, for which the survival is inactive: 87%.
